Experimental data as given in the RNAGym collection of RNA variant scans (doi:10.1093/nar/gkz1192).
Read counts are not given, so values of variants with three or more changes are uncertain.

B1: CPEB3 Ribozyme (parent)
chain: UAACAGGGGGCCACAGCAGAAGCGUUCACGUCGCAGCCCCUGUCAGAUUCUGGUGAAUCUGCGAAUUCUGCUGUAUAUCUC

Variants of: B1
Assay: self-cleavage, relative activity (ratio to wild type); higher = more cleavage; in vitro, sequencing
Procedure, shortened: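 Libraries of CPEB3 self-cleaving ribozyme mutants came from rounds of error-prone PCR and carried barcodes, which DNA sequencing matched to variants. In vitro transcription used T7 RNA polymerase at 37°C for 5 hours, with a further 15 min in DNase I before EDTA stopped the reaction; the ribozymes cleaved during both steps. The RNA was reverse transcribed with template switching and sequenced on Illumina. Relative activity is the cleaved/total read fraction of a variant divided by that of the unmutated ribozyme, averaged over three batches with at least 5 reads.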
In the case of UAACAGGGGGCCACAGCAGAAGCGUUCACGUCGCGGCCCCUGUCAGAUUCUGGUGAAUCCGCGAAUUCUGCUGUAUGUCUC [A35G U60C A77G], the self-cleavage is reported as 1.18. In the case of UAACAGGGGGCCACAGCAGAAGCGUUCACGUCGCGGCCCCUGUCAGAUUCUGGUGAAUCCGCGAAUUCUGCAGUAUAUCUC [A35G U60C U72A], the self-cleavage is reported as 0.56. Variant UAACAGGGGGCCACAGCAGAAGCGUUCACGUCGCGGCCCCUGUCAGAUUCUGGUGAAUCUGCGAACUCUGCUGUUUAUCAC [A35G U66C A75U U80A] has a self-cleavage of 1.12. UAACAGGGGGCCACAGCAGAAGCGUUCACGUCGCGGCCCCUGUCAGAUUCUGGUGAAUCUGCGAACUCUGCCGUAUAUCUC [A35G U66C U72C] gave a self-cleavage of 1.02. Variant UAACAGGGGGCCACAGCAGAAGCGUUCACGUCGCGGCCCCUGUCAGAUUCUGGUGAAUCUGCGAAUACUGCAGUAUAUCUA [A35G U67A U72A C81A] has a self-cleavage of 1.28. Variant UAACAGGGGGCCACAGCAGAAGCGUUCACGUCGCGGCCCCUGUCAGAUUCUGGUGAAUCUGCGAAUCCAGCUGUAUAUCUC [A35G U67C U69A] has a self-cleavage of 0.46. In the case of UAACAGGGGGCCACAGCAGAAGCGUUCACGUCGCGGCCCCUGUCAGAUUCUGGUGAAUCUGCGAAUUCAGCUGAAUAUCUC [A35G U69A U74A], the self-cleavage is reported as 0.89. In the case of UAACAGGGGGCCACAGCAGAAGCGUUCACGUCGCGGCCCCUGUCAGAUUCUGGUGAAUCUGCGAAUUCUGCUGCAUAUCAC [A35G U74C U80A], the self-cleavage is reported as 1.51. With UAACAGGGGGCCACAGCAGAAGCGUUCACGUCGCUGCCCCUGUCCGAUUCUGGUGAAUCUGCGGAUUCUGCCGCACAUCUC [A35U A45C A64G U72C U74C U76C] the self-cleavage was 0.27. UAACAGGGGGCCACAGCAGAAGCGUUCACGUCGCUGCCCCUGUCGGACUCUGGUGAAUCUGCGAAUUCUGCUGUAUAUCUC [A35U A45G U48C] gave a self-cleavage of 0.05. Variant UAACAGGGGGCCACAGCAGAAGCGUUCACGUCGCUGCCCCUGUCGGACUCUGGUGAAUCUGCGGAUUCUGCUGUAUAUCUC [A35U A45G U48C A64G] has a self-cleavage of 0.07. Work on UAACAGGGGGCCACAGCAGAAGCGUUCACGUCGCUGCCCCUGUCGGAUUCUGGUGAAUCUGCGAAUCCUGCCGUAAAUCUC [A35U A45G U67C U72C U76A] yielded a self-cleavage of 0.1. With UAACAGGGGGCCACAGCAGAAGCGUUCACGUCGCUGCCCCUGUCGGAUUCUGGUGAAUCUGCGAAUUCUGCUGCAUAUCCC [A35U A45G U74C U80C] the self-cleavage was 0.6. For UAACAGGGGGCCACAGCAGAAGCGUUCACGUCGCUGCCCCUGUCUGAUUCUGGCGAAUCUGCGAACCCUGCUGUAUAUCUC [A35U A45U U54C U66C U67C], the self-cleavage was 0.14. In the case of UAACAGGGGGCCACAGCAGAAGCGUUCACGUCGCUGCCCCUGUCUGAUUCUGGGGAAUCUGCGAAUUCUGCAGUAUUUCUC [A35U A45U U54G U72A A77U], the self-cleavage is reported as 0.07. UAACAGGGGGCCACAGCAGAAGCGUUCACGUCGCUGCCCCUGUCUGAUUCUGGUGAAUCUGCGAAUUCAGCUGUAUAUCAC [A35U A45U U69A U80A] showed a self-cleavage of 0.1. Work on UAACAGGGGGCCACAGCAGAAGCGUUCACGUCGCUGCCCCUGUCAGGUUCUGGUGUAUCUGCGAAUUCUGCUGUAUAUCUC [A35U A47G A56U] yielded a self-cleavage of 0.15. Work on UAACAGGGGGCCACAGCAGAAGCGUUCACGUCGCUGCCCCUGUCAGGUUCUGGUGAAUCUGCGAGUUCUGCAGUAUAUCUC [A35U A47G A65G U72A] yielded a self-cleavage of 0.2. For UAACAGGGGGCCACAGCAGAAGCGUUCACGUCGCUGCCCCUGUCAGGUUCUGGCGAAUCUGCGAAUUCUGCUGUAUAUCUC [A35U A47G U54C], the self-cleavage was 0.42. Work on UAACAGGGGGCCACAGCAGAAGCGUUCACGUCGCUGCCCCUGUCAGGUUCUGGUGAAUCUGCGAAUUCUGCCGUAUGUCUC [A35U A47G U72C A77G] yielded a self-cleavage of 0.43. In the case of UAACAGGGGGCCACAGCAGAAGCGUUCACGUCGCUGCCCCUGUCAGAUUCUGGUGGAUCUGCGAAUUCUGCUGUAUACCUC [A35U A56G U78C], the self-cleavage is reported as 0.36. UAACAGGGGGCCACAGCAGAAGCGUUCACGUCGCUGCCCCUGUCAGAUUCUGGUGUAUCUGCGGAUUCUGCUGUAUAUCUC [A35U A56U A64G] showed a self-cleavage of 0.12. With UAACAGGGGGCCACAGCAGAAGCGUUCACGUCGCUGCCCCUGUCAGAUUCUGGUGAGUCUGCGUAUUCUGCUGUAUAUCUC [A35U A57G A64U] the self-cleavage was 0.2. In the case of UAACAGGGGGCCACAGCAGAAGCGUUCACGUCGCUGCCCCUGUCAGAUUCUGGUGAGUCUGCGAAUUCUACUGUAUAUCUC [A35U A57G G70A], the self-cleavage is reported as 0.2. In the case of UAACAGGGGGCCACAGCAGAAGCGUUCACGUCGCUGCCCCUGUCAGAUUCUGGUGAGUCUGCGAACUCAGCUGUAUAUCAC [A35U A57G U66C U69A U80A], the self-cleavage is reported as 0.09. In the case of UAACAGGGGGCCACAGCAGAAGCGUUCACGUCGCUGCCCCUGUCAGAUUCUGGUGAUUCUGCGAAUUCUGCUGUAUAUCCC [A35U A57U U80C], the self-cleavage is reported as 0.3. Variant UAACAGGGGGCCACAGCAGAAGCGUUCACGUCGCUGCCCCUGUCAGAUUCUGGUGAAUCUGCGCACUCUGCUGUAUACCUC [A35U A64C U66C U78C] has a self-cleavage of 0.09. Work on UAACAGGGGGCCACAGCAGAAGCGUUCACGUCGCUGCCCCUGUCAGAUUCUGGUGAAUCUGCGGAUUCUGCAGUAUAUCUC [A35U A64G U72A] yielded a self-cleavage of 0.14. UAACAGGGGGCCACAGCAGAAGCGUUCACGUCGCUGCACCUGUCAGAUUCUGGUGAAUCUGCGGAUUCAGCUGUAUAUCCC [A35U C38A A64G U69A U80C] gave a self-cleavage of 0.12. UAACAGGGGGCCACAGCAGAAGCGUUCACGUCGCUGCCCUUGUCAGAUUCAGGUGAAUCUGCGAAUUCUGCUGUAUAUCUC [A35U C40U U51A] showed a self-cleavage of 0.31. For UAACAGGGGGCCACAGCAGAAGCGUUCACGUCGCUGCCCUUGUCAGAUUCUGGUGAAUCAGCGAAUUCUGCUGUAUAUCUC [A35U C40U U60A], the self-cleavage was 0.32. In the case of UAACAGGGGGCCACAGCAGAAGCGUUCACGUCGCUGCCCCUGUCAGAUUAUGGUGAAUCUGCGAAUUCUGCUGCAUAUCUC [A35U C50A U74C], the self-cleavage is reported as 0.89. UAACAGGGGGCCACAGCAGAAGCGUUCACGUCGCUGCCCCUGUCAGAUUCUGGUGAAUAUGCGAGUUCUGCUGUAUGUCUC [A35U C59A A65G A77G] showed a self-cleavage of 0.05. With UAACAGGGGGCCACAGCAGAAGCGUUCACGUCGCUGCCCCUGUCAGAUUCUGGUGAAUCUGGGAAUCCUGCUGUAUAUCUC [A35U C62G U67C] the self-cleavage was 0.11.
